Experimental findings from paper PMC4336329 (PLoS ONE, 2015) are described below.

Among all 310,000 compounds or so, about 2,200 (0.71%) showed an effect of 50% or more. The effect is printed as a negative number. This is one part of the list.

Chain of human ether-à-go-go-related gene (hERG) potassium channel (Q12809 whole entry, looked up): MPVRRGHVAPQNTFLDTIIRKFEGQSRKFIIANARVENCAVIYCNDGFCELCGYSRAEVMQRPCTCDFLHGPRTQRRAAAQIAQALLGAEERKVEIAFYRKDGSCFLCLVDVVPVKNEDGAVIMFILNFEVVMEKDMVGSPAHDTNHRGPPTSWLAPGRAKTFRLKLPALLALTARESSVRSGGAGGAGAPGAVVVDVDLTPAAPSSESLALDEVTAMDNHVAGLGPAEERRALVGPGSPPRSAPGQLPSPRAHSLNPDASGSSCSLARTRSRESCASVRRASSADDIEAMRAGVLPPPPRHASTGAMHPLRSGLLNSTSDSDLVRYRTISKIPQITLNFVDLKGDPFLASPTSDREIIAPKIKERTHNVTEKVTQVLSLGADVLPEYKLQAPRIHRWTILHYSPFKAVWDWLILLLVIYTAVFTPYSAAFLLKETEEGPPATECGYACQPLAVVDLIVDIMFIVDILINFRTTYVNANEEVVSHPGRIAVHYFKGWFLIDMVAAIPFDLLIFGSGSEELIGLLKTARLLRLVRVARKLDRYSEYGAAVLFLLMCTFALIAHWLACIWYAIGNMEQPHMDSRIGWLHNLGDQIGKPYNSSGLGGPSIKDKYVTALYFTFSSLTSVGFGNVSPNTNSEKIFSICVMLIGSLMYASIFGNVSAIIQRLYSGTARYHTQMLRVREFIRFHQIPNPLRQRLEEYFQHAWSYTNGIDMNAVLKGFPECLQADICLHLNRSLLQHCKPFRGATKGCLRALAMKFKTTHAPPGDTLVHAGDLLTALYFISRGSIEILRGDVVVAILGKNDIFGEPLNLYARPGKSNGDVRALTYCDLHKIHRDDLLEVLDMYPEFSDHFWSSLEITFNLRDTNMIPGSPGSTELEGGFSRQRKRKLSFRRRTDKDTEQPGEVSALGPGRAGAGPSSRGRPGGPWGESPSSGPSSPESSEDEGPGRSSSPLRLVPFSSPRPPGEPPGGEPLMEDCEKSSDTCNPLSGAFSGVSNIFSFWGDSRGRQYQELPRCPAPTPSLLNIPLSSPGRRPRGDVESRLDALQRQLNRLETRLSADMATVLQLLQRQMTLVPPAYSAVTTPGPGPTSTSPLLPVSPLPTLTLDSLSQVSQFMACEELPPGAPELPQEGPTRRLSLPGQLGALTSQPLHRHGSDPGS

The test has as its target human ether-à-go-go-related gene (hERG) potassium channel (human, UniProt Q12809). In words: primary screen, population patch clamp on CHO cells stably expressing hERG.
For `CCCCC1CC1C(=O)Nc1ncc2c(n1)CC(C)(C)CC2=O` (centres unmarked), the “hERG current change (%, negative = inhibition) at 1uM” value is given as -20.4%.
Regarding `COc1cc(CNc2nc3ccccc3n2C)cc(OC)c1OC`, the “hERG current change (%, negative = inhibition) at 1uM” value worked out at 11.6%.
In the case of `O=C(CC1C(=O)NCCN1Cc1cccc(F)c1F)NC1CCCCCC1` (centres unmarked), the “hERG current change (%, negative = inhibition) at 1uM” value was found to be 3.66%.
To `Cl.Oc1ccc(Cl)cc1CNCc1ccc(F)c(F)c1` belongs 11.6%; to `CCCc1ccc(S(=O)(=O)N2CCN(C(C)C(=O)NCc3ccc(OC)cc3)CC2)cc1` (centres unmarked), -13.9%.
To `O=C(NNC(=S)Nc1ccc(Cl)cc1Cl)c1ccncc1` belongs 14.1%.
To `COc1ccccc1/C=N/OCc1ccc(C#N)cc1` belongs 11.4%; to `CCOC(=O)c1cccc(C2=CC(=O)C[C@H](c3ccc(Cl)cc3)C2)c1`, 7.61%.
For `CCOC(=O)c1ccc(CSc2nnc(N)s2)cc1`, the “hERG current change (%, negative = inhibition) at 1uM” value was 5.39%.
`O=C(CSc1nnc(CNc2ccc(F)cc2)n1Cc1ccccc1)N1CCOCC1`: the “hERG current change (%, negative = inhibition) at 1uM” value turned out to be 5.64%.
As for `Cc1cc(C)n(C/C=C/Cn2nc(C)cc2C)n1`, the figure is -13.6%.
As for `COc1ccc(Nc2nc(NC(C)(C)C)nc(N3CCOCC3)n2)c(OC)c1`, the figure is -1.4%.
To `CCC(C)Nc1nc2c(c(=O)n(C)c(=O)n2C)n1C` (centres unmarked) belongs 12.2%.
For the compound `Cc1cc(C)n2nc(SCc3nnc(-c4cccs4)o3)nc2n1`, the “hERG current change (%, negative = inhibition) at 1uM” value is 11%.
To `CCC1CCCCN1C(=O)CCc1nnc(Cc2c[nH]c3ccccc23)o1` (centres unmarked) belongs 8.72%; to `COc1cccc(NC(=O)NNC(=O)c2ccc3c(c2)NC(=O)C(C)(C)O3)c1`, 19%.
As for `Cc1ccc(NC(=O)CSc2nc3c(c(=O)[nH]2)CCC3)c(C)c1`, the figure is 15.1%; as for `CC(C)NC(=S)NC(=O)c1ccc(-c2ccccc2)cc1`, 5.54%.
In the case of `Cc1sc(NC(=O)c2ccco2)c(C(c2cccnc2)N2CCN(C)CC2)c1C` (centres unmarked), the “hERG current change (%, negative = inhibition) at 1uM” value was -2.64%.
As to `CC(NC(=O)CCCc1ccccc1)c1ccncc1` (centres unmarked), the “hERG current change (%, negative = inhibition) at 1uM” value stood at 0.702%.
In the case of `O=C(CCn1nc(-c2ccc(Cl)cc2)ccc1=O)N1CCN(c2ccc(F)cc2)CC1`, the “hERG current change (%, negative = inhibition) at 1uM” value is reported as -3.84%.
To `CCCn1c(SCC(=O)NCCc2ccccc2)nnc1-c1ccco1` belongs 5%; to `CCOc1ccc(NC(=O)Cn2nnc(C(=O)NCc3ccco3)c2N)cc1`, 13.1%.
With `Br.Cn1c(=N)n(CC(=O)c2ccc(F)cc2)c2ccccc21`, the “hERG current change (%, negative = inhibition) at 1uM” value came out at 3.87%.
For `O=[N+]([O-])c1ccc(NC2CCCC2)c2ccncc12`, the “hERG current change (%, negative = inhibition) at 1uM” value was found to be 3.68%.
As for `Nc1nncn1C(=O)c1cccs1`, the figure is 4.4%.
For `CCOC(=O)c1cc2c(ccn2C)n1CC(=O)N1CCN(c2ccc(F)cc2)CC1`, the “hERG current change (%, negative = inhibition) at 1uM” value is 14.3%.
As for `COc1cc(OC)c(NC2c3ccccc3C(=O)N2c2cc(C)ccn2)cc1Cl` (centres unmarked), the figure is 6.56%; as for `CC1(C)CC(=O)C=C(NCCN2CCN(C(=O)Nc3ccc(Cl)cc3)CC2)C1`, 5.78%.
As for `CCOC(=O)C1(C)NC(c2cccs2)C2C(=O)N(c3ccc(OC)cc3)C(=O)C21` (centres unmarked), the figure is 5.74%; as for `O=C(CNC(=O)c1ccc(Br)o1)NNC(=O)c1ccc(Cl)cc1`, 4.58%; as for `O=C(O)c1ccc2c(c1)-c1cc(C(=O)O)ccc1S2(=O)=O`, 13.8%.
For `COc1ccc(S(=O)(=O)n2cccc2)c(OC)c1`, the “hERG current change (%, negative = inhibition) at 1uM” value came to 12.9%.
As to `CN(C)S(=O)(=O)c1ccc2c(c1)c(=O)c(C(=O)N1CCN(c3ccccn3)CC1)cn2C`, the “hERG current change (%, negative = inhibition) at 1uM” value is reported as 16.1%.
As for `NS(=O)(=O)c1ccc(N=Nc2c(O)ccc3ccccc23)cc1`, the “hERG current change (%, negative = inhibition) at 1uM” value came out at 0.2%.
In the case of `O=C(N/N=C/c1c(O)n(Cc2ccccc2)c(=O)[nH]c1=O)c1ccncc1`, the “hERG current change (%, negative = inhibition) at 1uM” value came out at 14.6%.
To `CCOc1ccccc1N1CC(C(=O)N(C)Cc2cccnc2)CC1=O` (centres unmarked) belongs 11.9%.
Regarding `CC1CCCCN1Cc1c(O)ccc2c(=O)c(-c3nc4ccccc4s3)c(N)oc12` (centres unmarked), the “hERG current change (%, negative = inhibition) at 1uM” value is listed as 5.23%.
Turning to `Cc1ccccc1NC(=O)N1CCCC(c2nc(-c3ccc(F)cc3)no2)C1` (centres unmarked), the “hERG current change (%, negative = inhibition) at 1uM” value is -0.93%.
To `O=C(Cn1cnc2sc3c(c2c1=O)CCCC3)NCC(=O)Nc1ccc(F)cc1F` belongs 9.73%.
To `O=C(C1CCN(Cc2cccs2)CC1)N1CCN(Cc2ccc3c(c2)OCO3)CC1.O=C(O)C(=O)O` belongs 5.24%; to `C=CCn1c(/N=C/c2ccc3c(c2)OCO3)nc2ccccc21`, 6.96%.
With `CCOC(=O)C1=C(CP(=O)(c2ccccc2)c2ccccc2)NC(=O)NC1c1ccc(Cl)cc1` (centres unmarked), the “hERG current change (%, negative = inhibition) at 1uM” value amounted to 9.29%.
Turning to `Cc1noc(/C=C/N(C)C)c1S(=O)(=O)N1CCCC(C(=O)NCc2ccccc2Cl)C1` (centres unmarked), the “hERG current change (%, negative = inhibition) at 1uM” value came out at 13.6%.
Take `COc1ccc(/C=C/CN2CCCC(CCC(=O)NCc3ccc(F)c(F)c3)C2)cc1` (centres unmarked): the “hERG current change (%, negative = inhibition) at 1uM” value is given as -54.3%.
In the case of `CC(=O)c1c(C)[nH]c(C(=O)COc2ccc3ccc(=O)oc3c2)c1C`, the “hERG current change (%, negative = inhibition) at 1uM” value is recorded as 4.35%.
Turning to `O=C(CCn1nc(-c2ccccc2)c2ccccc2c1=O)NN1CCOCC1`, the “hERG current change (%, negative = inhibition) at 1uM” value is 10.1%.
As for `CCOC(=O)c1c(C)nc2sc3c(=O)[nH]cnc3c2c1-c1ccc(OC)cc1`, the figure is 11.8%; as for `COc1ccc(-n2c(CN3CCC(C)CC3)nc3ccc([N+](=O)[O-])cc3c2=O)c(OC)c1`, 10.3%.
To `C=CCc1cccc2cc(C(=O)NC)c(=O)oc12` belongs 2.09%.
Take `CCc1nc(N)c(C#N)c(-c2ccc(OC)c(OC)c2)c1C`: the “hERG current change (%, negative = inhibition) at 1uM” value stood at 13.5%.
With `O=C(CN1C(=O)C2C3C=CC(C3)C2C1=O)NC1CCCc2ccccc21` (centres unmarked), the “hERG current change (%, negative = inhibition) at 1uM” value turned out to be 11.2%.
As for `COc1ccccc1NC(=S)NCc1ccc(Cl)cc1`, the figure is 8.37%; as for `O=C1NCCN1CCNS(=O)(=O)c1ccc(F)c(Cl)c1`, 3.67%.
To `CCN(CC(=O)NCc1cccs1)C(=O)c1ccccc1F` belongs 1.34%; to `Cc1cc(NC(=O)c2cc3nc(C4CC4)cc(C(F)(F)F)n3n2)no1`, 0.67%.
As for `O=C(NCCC1=CCCCC1)C1CC(=O)N(Cc2ccccc2)C1` (centres unmarked), the figure is 10.2%.
For the compound `Cc1ccc(CN2C(=O)NC(=O)C3(Cc4c(nc5ccccn5c4=O)N4CCCCCC43)C2=O)cc1` (centres unmarked), the “hERG current change (%, negative = inhibition) at 1uM” value amounted to 4.44%.
As to `O=C1c2ccccc2C(=O)N1CCc1ccccc1`, the “hERG current change (%, negative = inhibition) at 1uM” value came out at 10.8%.
Turning to `O=C(COc1ccc([N+](=O)[O-])cc1)Nc1ccc(C(=O)NCc2cccnc2)cc1`, the “hERG current change (%, negative = inhibition) at 1uM” value is 6.9%.
`N#Cc1nc(Cc2cccc3ccccc23)oc1N1CCC(C(N)=O)CC1`: the “hERG current change (%, negative = inhibition) at 1uM” value is listed as -5.51%.
To `COc1ccccc1C(=O)COC(=O)CSCC(=O)Nc1cc(C)on1` belongs 14.8%.
As for `O=C1C=C(c2ccc3c(c2)OCO3)C[C@@H](c2ccc3c(c2)OCO3)C1`, the figure is 8.54%; as for `CCOc1ccccc1NC(=O)CSC1=C(C#N)C(c2ccco2)C(C(=O)Nc2nc3ccccc3s2)=C(C)N1` (centres unmarked), 5.87%; as for `CCCS(=O)(=O)N1CCC(C(=O)NCCCN(C)Cc2ccccc2)CC1`, 0.918%.
As for `COC(=O)C1=C(C)N(C2CCCC2)C(=O)C1(NC(C)=O)C(F)(F)F` (centres unmarked), the “hERG current change (%, negative = inhibition) at 1uM” value turned out to be 4.73%.
`CC(=O)N1CCN(c2ccc(C(N)=O)cc2[N+](=O)[O-])CC1`: the “hERG current change (%, negative = inhibition) at 1uM” value stood at 9.41%.
As for `CC1(C)CC(NC(=O)N2c3ccccc3Sc3ccccc32)CC(C)(C)N1`, the figure is 10.4%.
As for `COc1ccc(C2CC(c3cccs3)=NN2C(=O)c2ccco2)cc1OC` (centres unmarked), the figure is 5.22%; as for `COc1ccccc1/C=N/NC(=O)c1sc(C)nc1C`, 14.6%; as for `Cc1cnc(NC(=O)CSc2nnc(Cc3ccccc3)o2)s1`, 9.76%.
For the compound `O=C(CC1C(=O)NCCN1CCCc1ccccc1)NCCc1ccccc1F` (centres unmarked), the “hERG current change (%, negative = inhibition) at 1uM” value turned out to be 10.9%.
With `COC(=O)CNC(=O)c1c(-c2ccccc2Cl)noc1C`, the “hERG current change (%, negative = inhibition) at 1uM” value is -0.146%.
As for `CCNC(=O)C/C(C)=N/NC(=O)C1CCCCC1`, the figure is 8.03%; as for `COCCN(Cc1nc(C(c2ccccc2)c2ccccc2)no1)C(C)C`, 4.77%.
Consider `COc1ccc(/C(=C/c2ccc(OC(F)F)c(OC)c2)C(=O)O)cc1OC`, for which the “hERG current change (%, negative = inhibition) at 1uM” value is recorded as 1.22%.
As for `NC(=O)c1ccsc1NC(=O)COC(=O)COc1ccc(C=O)cc1`, the figure is 14.3%; as for `Cc1ccc2c(c1)N(C(=O)CCC(=O)N1CCCCC1)CCO2`, -10.5%.
In the case of `CC(C)COC(=O)/C(C#N)=C/c1cn(Cc2ccccc2)c2ccccc12`, the “hERG current change (%, negative = inhibition) at 1uM” value is on record as 10.7%.
As for `COc1ccc(C(=O)Nc2cccc(OC(=O)c3ccco3)c2)cc1`, the figure is 14.7%; as for `COc1cccc2c1C(=O)c1ccc3ccccc3c1C2=O`, -1.19%; as for `Cc1ccc2nc(-c3ccccc3)cc(C(=O)NNC(=O)c3csc(N4CCOCC4)n3)c2c1`, 1.25%.
As for `CC(C)(C)c1cc2cccnc2n1Cc1cccc(F)c1`, the figure is 0.282%; as for `Cn1cc(Br)c(C(=O)NNC(=O)c2ccccc2)n1`, -4.57%.
As for `c1ccc(Oc2cccc(OCCCn3cncn3)c2)cc1`, the figure is 0.573%; as for `Cc1cccc(NC(=O)[C@@H]2CCCN2C2=NS(=O)(=O)c3ccccc32)c1C`, 8.6%; as for `Nc1ccc(Nc2ccccc2)cc1`, 5.24%.
Consider `CCOC(=O)Cc1csc(NC(=S)NC(=O)C(C)(C)C)n1`, for which the “hERG current change (%, negative = inhibition) at 1uM” value is on record as -4.47%.
`C/C(=N\NC(=O)c1c(Cl)cnn1C)c1cccc(NC(=O)C(C)C)c1`: the “hERG current change (%, negative = inhibition) at 1uM” value is recorded as -5.62%.
